Reference: ChEMBL document CHEMBL4888484, “Replenishing the malaria drug discovery pipeline: Screening and hit evaluation of the MMV Hit Generation Library 1 (HGL1) against asexual blood stage Plasmodium falciparum ,using a nano luciferase reporter read-out” (2022)
The campaign covered roughly 150,000 compounds. About 540 (0.36%) showed an effect of 50% or more. The list shows a part of the results.

What follows are compounds tested on Plasmodium falciparum (assay: Primary screen in NF54 nanoGlo assay, in single point, at 2uM, 72h; a lower Z score goes with more inhibition). Settings: timepoint 72 hour.
Type: functional, Erythrocyte

Structure (SMILES)	% Inhibition	Z score
Cc1ccc(N(C(=O)c2nc3nc(C)cc(C)n3n2)C2CCCCC2)nc1	-4%	0.76
O=C(NCc1cccc(C(F)(F)F)c1)c1cc(-c2ccccc2Cl)nn1-c1cccc(Cl)c1	-9%	1.11
Cc1cc(NC(=O)CCC(N)=O)cnc1N1CCCC[C@@H]1C	-3%	0.36
CC(=O)Nc1ncccc1OC(F)F	-12%	1.11
CN1CCC(OCCCNC(=O)Nc2cccc(-c3ccco3)c2)CC1	-3%	0.51
COCC1(C(=O)N2CC[C@@]3(CCCN(Cc4cccc(F)c4F)C3=O)C2)CCC1	-10%	1.91
C=C1C2(C(=O)N3CCC(COC)C3)CCC(C2)C1(C)C (stereo unspecified)	0%	0.05
c1nc2cc(-c3noc(-c4cn(C5CCCCC5)nn4)n3)ccc2[nH]1	-13%	1.69
CCn1cc(OCc2ccc(C#N)cc2OC)cn1	-14%	1.44
Cc1noc([C@H](C)NC(=O)Nc2cccc(-c3cccs3)c2)n1	0%	0.04
CCc1ccc(CN(C)c2nc(-c3ccccn3)nc3c2CCNC3)nc1	-1%	0.12
O=C(Cc1ccc(F)cc1)Nc1cnoc1	-19%	2.98
CC(C)Cn1cncc1CNCc1ccc(-c2cc[nH]n2)o1	-5%	0.89
O=C(O)c1cccnc1CN1CCCC[C@@H]1Cc1cccc(Br)c1	-7%	1.22
O=C1NCCN1C(=O)Nc1ccc2c(c1)N(C(=O)c1ccccc1)CCC2	6%	-1.1
COCCn1cnnc1[C@H](C)NS(=O)(=O)c1ccc2cc(OC)ccc2c1	-13%	1.23
CNC(=O)C(Cc1ccccc1)NCC1CCOc2ccccc21 (stereo unspecified)	-7%	0.61
CCc1nc(-c2cccc(NC(=O)c3cccc(N(C)C)c3)c2)no1	-21%	3.59
COC1CCN(C(=O)NCc2ccc3[nH]cnc3c2)CC1	-12%	2.23
NC(=O)[C@]1(O)CCN(c2ncnc3[nH]ccc23)C1	-7%	0.82
Cc1ccc(N2CCN(c3nccn4c(=O)n(CC(=O)NCc5ccccc5)nc34)CC2)cc1	-10%	0.94
O=C1N(CCCc2ccccc2)CCC[C@@]1(O)CN[C@H]1CC[C@H](O)CC1	-6%	0.83

Structure (SMILES)	% Inhibition	Z score
Cc1noc(-c2ccc3c(c2)OCO3)c1C(=O)NCCC1(C)OCCO1	1%	-0.12
O=S(=O)(c1ccc2c(c1)CCCC2)N1CCC2(CC1)NCCN=C2NC1CCCCC1	-1%	0.19
COCCn1cnc2cc(NC(=O)C3CCCCC3)cc(C(=O)N3CCC(C)CC3)c21	8%	-1.09
CCN1CCNC(=O)[C@@H]1Cc1nc(CCOC)nn1-c1cccc(Cl)c1	2%	-0.29
CCc1ccc(OCCNC(C)(C)C)cc1	4%	-0.52
COc1ccc(NC(=O)c2ccc3ccccc3n2)cn1	-16%	2.92
CC(C)n1cnnc1C[C@H]1CCCN(C(=O)Cc2cccs2)C1	7%	-0.94
CCCc1ccc(-c2nc(NC(=O)C3CCOCC3)sc2C)cc1	-4%	0.59
CCO[C@@H](C)c1nccn1Cc1ncccc1C	7%	-0.98
CC(C)C(=O)N1CCN(C/C=C/c2ccccc2)[C@@H]2CS(=O)(=O)C[C@@H]21	-12%	1.48
CCCN(CCC)C(=O)C1CCOCC1	8%	-1.46
CCNC(=O)N1CC(C(=O)NCc2ccccc2)CCC1c1ccc(F)c(C)c1 (stereo unspecified)	-4%	0.37
CCC1(CC)CCN(S(=O)(=O)N2CCC[C@@H]2COC)C1	-13%	1.51
COc1cccc(-c2noc(N[C@@H](C)C3(S(C)(=O)=O)CC3)n2)c1	-6%	0.55
Cc1ccc(CN(C)C(=O)c2cc(C3CC3)no2)o1	-12%	1.74
O=S(=O)(NCCN1CCCC1)c1cnc2ccccc2c1	2%	-0.17
CCN(Cc1csc(C)n1)C[C@H]1CCCCO1	2%	-0.27
COc1cc(-c2ccccc2CN2CCOCC2)cc(OC)c1OC	2%	-0.41
COc1ccc(CN2CCc3nc(N4CCCC4)ncc3C2)c(OC)c1OC	4%	-0.54
Cc1cnc(C2CCC2)n1CCNC(=O)C1CCCCC1	-10%	1.2
O=C(C1CCCCC1)N1CC(c2nc(-c3ncccn3)no2)C1	-5%	1.01
